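Interpolation was linear, between the two tested concentrations surrounding the appropriate level; five concentrations were tested over 48 hours in 96-well plates. GI50 is the concentration that inhibits growth by half.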 Calls of active or inactive are those of the source. Rule as the data show it: active = GI50 up to about 1.1 µM and inactive = higher.

This test has as its system NCI-H322M. The test can be described thus: DTP human tumour cell line panel, 48 h.
Regarding `O=C1CCCCN1`, the GI50 (in general, the concentration at which growth is held to half of that of the control) was inactive: > 1120 µM.
Then `Oc1ccc(-c2n[nH]c(S)n2)cc1`, with inactive: > 100 µM; and `Nc1[nH]nc2ccccc12`, with inactive: > 100 µM.
For `O=P(O)(O)CCP(=O)(O)O`, the GI50 is inactive: > 100 µM.
Then `NCCCN1CCN(c2ccccc2)CC1`, with inactive: > 100 µM; and `O=C1Nc2ccccc2/C1=N/NC(=S)N1CCCC1`, with inactive: 2.97 µM.
`Nc1nc(N)c2nc(CNc3ccc(C(=O)NC(CCCNC(=O)c4ccccc4C(=O)O)C(=O)O)cc3)cnc2n1` (centres undefined): the GI50 is active: 0.0225 µM.
In the case of `Cc1cn2c(/C=N/NC(=N)N)c(-c3cccc([N+](=O)[O-])c3)nc2s1` it was inactive: 1.67 µM; in that of `O=C(COc1ccc2c(=O)cc(-c3ccc(Cl)cc3)oc2c1)N1CCN(c2ccccc2)CC1`, inactive: 32.4 µM; in that of `Cc1cc(=O)cc2sc3c(C)cccc3nc1-2`, inactive: > 100 µM.
Turning to `O=C(O)C1CCCCC1C(=O)Nn1cnnc1` (centres undefined), the GI50 was inactive: > 100 µM.
In the case of `CC[N+](CC)(CC)Cc1cc2ccccc2n1C(=O)OC` it was inactive: > 100 µM; in that of `COP(=O)(OC)/C(=C\c1cn(C(c2ccccc2)(c2ccccc2)c2ccccc2)cn1)NC(C)=O`, inactive: > 100 µM; in that of `O=[As](O)(O)c1cc(/N=N/c2ccc(-c3ccc(/N=N/c4cc([As](=O)(O)O)c(O)cc4O)cc3)cc2)c(O)cc1O`, inactive: > 83.2 µM.
On to `Cc1ccc(NC(=O)c2cc3cc(/N=N/c4ccccc4C(=O)O)ccc3oc2=O)cc1`, for which the GI50 is inactive: 49 µM.
`CC1=NN(C(=O)c2ccc(C)cc2)C(=O)C1/N=N/c1ccccc1C(=O)O` (centres undefined): the GI50 is inactive: > 100 µM.
For `C=C(C(=O)OC)[C@H]1CC/C(C)=C/CC[C@@](C)(O)C=CC[C@@]2(C)O[C@@H]2C1`, the GI50 is inactive: 27.4 µM.
In the case of `Cc1cc(N(CCC#N)CCC#N)ccc1/C=C(\NC(=O)/C=C/c1ccccc1)NC(=O)Nc1ccc(Cl)cc1` it was inactive: > 100 µM.
As for `Cc1cc(-c2cc(C(C)(C)C)c(O)c(C(C)(C)C)c2)c(C)cc1-c1cc(C(C)(C)C)c(O)c(C(C)(C)C)c1`, the GI50 is inactive: > 100 µM.
Then `CCOP(=O)(OCC)C(C(=O)OC)C(=O)C(=O)Nc1cccc(O)c1` (centres undefined), with inactive: > 100 µM; and `O=[N+]([O-])C(=C(N1CCOCC1)N1CCOCC1)/C(Cl)=C(\Cl)Br`, with inactive: > 100 µM; and `CC(=O)CC1(CBr)Nc2ccc([N+](=O)[O-])cc2NC1=O` (centres undefined), with inactive: 50.1 µM.
In the case of `CC12CCC(C/C1=N\NC(N)=O)C2(C)C` (centres undefined) it was inactive: > 100 µM; in that of `Cc1c(O)c(C)c2c(C)cn(C(=O)C(C)(C)C)c2c1C`, inactive: 19.8 µM; in that of `COC(=S)OC1CC(n2cnc3c(=O)[nH]cnc32)OC1CO[Si](C)(C)C(C)(C)C` (centres undefined), inactive: > 100 µM.
Then `Cc1ccc(S(=O)(=O)Oc2coc(CO)cc2=O)cc1`, with inactive: 17 µM.
As for `CN(CCNC(=O)c1cn(C)c2c1ccc1cc(Cl)ccc12)CCNC(=O)c1cn(C)c2c1ccc1cc(Cl)ccc12`, the GI50 was inactive: 1.92 µM.
Then `COc1ccc(N2C(=O)C3c4[nH]c5ccccc5c4C4C(C)CCCC4C3C2=O)cc1` (centres undefined), with inactive: > 90.8 µM; and `S=C1SC(=N\c2ccccc2)/C(=N/c2ccccc2)N1c1ccccc1`, with inactive: > 100 µM; and `NC(=S)N1N=C2c3ccccc3CC[C@@H]2[C@@H]1c1ccccc1`, with inactive: 22.4 µM.
In the case of `CCOC(=O)/C(Cl)=C(\C)Nc1nc2c(ccc3ccccc32)s1` it was inactive: > 10 µM.
Regarding `COC(OC)C1OC(CO)C(n2ccc(N)nc2=O)C1O` (centres undefined), the GI50 is inactive: > 100 µM.
In the case of `Cn1c(=O)cc(NNc2ccc(Cl)c(Cl)c2)[nH]c1=O` it was inactive: 18.3 µM; in that of `CCCNC(=O)CCC(C)[C@H]1CCC2C3C(C[C@H](OC(C)=O)[C@@]21C)[C@@]1(C)CCC2(C[C@H]1C[C@H]3OC(C)=O)OOC1(CCC(C)CC1)OO2` (some centres undefined), inactive: 58.9 µM.
For the compound `Cc1ccc(C)c(N2C(=O)C(=O)C(c3nc4ccccc4s3)/C(=N\c3cccc4c(=O)[nH][nH]c(=O)c34)C2=O)c1` (centres undefined), the GI50 is inactive: > 100 µM.
Then `O=C(Nc1cccc(-c2cn3ccccc3n2)c1)c1ccncc1`, with inactive: 39.7 µM; and `N#CCCN(CCC#N)c1ccc(C(/N=N/c2ccc(Cl)cc2)=N\c2ccccc2)cc1`, with inactive: 14.1 µM; and `COC1/C(=C\C(=O)OC(C)(C)C)c2ccccc2N1C(C)=O` (centres undefined), with inactive: > 100 µM.
In the case of `C[C@]12CC/C(=N\O)C=C1CC[C@@H]1[C@@H]2CC[C@]2(C)C(=N/O)/C(=C/c3ccc([N+](=O)[O-])cc3)C[C@@H]12` it was inactive: 11.5 µM; in that of `Cc1nc(-c2cc3cc([N+](=O)[O-])ccc3oc2=O)cs1`, inactive: > 100 µM; in that of `CSc1n[n+]2c(s1)SCCC2`, inactive: > 100 µM.
Then `CN1[C@@H]2CCCC[C@H]2N(C)P1(=O)C(O)/C=C/c1ccccc1` (some centres undefined), with inactive: > 100 µM.
On to `O=C1CC(=O)N(c2ccccc2)N1/C(=C/c1ccccc1)c1ccccc1`, for which the GI50 is inactive: 24.4 µM.
Take `CC(=O)NC(C)(C)C1CC=C(C)/C(=N\O)C1` (centres undefined): the GI50 was inactive: > 100 µM.
In the case of `O=C(NN=C1NCCCN1)c1ccco1` it was inactive: > 100 µM; in that of `CCCCCCCCCCCCCCC[C@@H](O)C[N+](C)(C)CCO`, inactive: 13.6 µM.
Regarding `CN(C)CCNc1nc(-c2ccc3ccccc3c2)nc2[nH]cnc12`, the GI50 was inactive: 11.9 µM.
In the case of `CC1(C)C/N=C/C(C)(OCc2ccccc2)C(=O)NC(C)(C)C/N=C/C(C)(OCc2ccccc2)C(=O)N1` (centres undefined), the GI50 was inactive: > 10 µM.
On to `CCOC(=O)CNC(=O)CNC(=O)CNC(=O)CNNc1c(OCc2ccccc2)c(=O)c1=O`, for which the GI50 was inactive: > 100 µM.
Then `COC(NC(=O)Nc1ccccc1C)(C(F)(F)F)C(F)(F)F`, with inactive: > 100 µM.
In the case of `O=C1CNC(=O)/C(=C/c2c[nH]c3ccccc23)N1` it was inactive: > 100 µM; in that of `O=C1C=C(Nc2ccccc2C(=O)CC(=O)C(=O)Nc2ccc(Cl)c(Cl)c2)c2ccccc2C1=O`, inactive: 47.5 µM.
In the case of `C[N+]1(C)C/C(=C\c2ccccc2)C(=O)/C(=C/c2ccccc2)C1` it was inactive: > 100 µM; in that of `COc1cc(Cc2cnc(N)nc2N)cc(OC)c1OCCCNc1ccc([N+](=O)[O-])cc1`, inactive: 19.1 µM; in that of `CC(C)(C)OC(=O)NC1CC=CCC1NC(=O)OC(C)(C)C` (centres undefined), inactive: > 100 µM.
In the case of `O=C1C(O)=C(CC=C(Cl)Cl)C(=O)c2ccccc21`, the GI50 was inactive: 26.3 µM.
For the compound `N#CC(c1nc2ccccc2s1)c1ncnc(Cl)c1[N+](=O)[O-]` (centres undefined), the GI50 was inactive: 15.8 µM.
For the compound `O=C(NNCc1ccc(Cl)cc1)Nc1cccc2ccccc12`, the GI50 was inactive: > 100 µM.
In the case of `COC(=O)c1nc(NC#N)nc(O)c1C` it was inactive: > 100 µM; in that of `C=CCCON(C(=O)OC(C)(C)C)C(C)(C)C`, inactive: > 100 µM.
Then `Clc1ccc(CSCCc2ccncc2)cc1Cl`, with inactive: 28.2 µM; and `O=C(c1ccncc1)C1C(=O)c2ccccc2C1C1(O)c2ccccc2CC1C(O)c1ccncc1` (centres undefined), with inactive: 43.7 µM; and `CCN(CC)C(=O)Cn1c2c(c3ccccc31)CCCC2`, with inactive: > 100 µM.
Then `CN1CN(c2ccccc2)C2(CCN(Cc3nc4ccccc4s3)CC2)C1=O`, with inactive: 18 µM; and `CC(C)(C)OC(=O)NC(Cc1ccc(O)cn1)C(N)=O` (centres undefined), with inactive: > 100 µM.
`OC(CC(c1ccccc1)c1ccc(Cl)cc1)c1ccc(Cl)cc1` (centres undefined): the GI50 is inactive: 36.6 µM.
`Cc1cc(C)c(C[C@H]2COC(=O)[C@]2(O)Cc2c(C)cc(C)cc2C)c(C)c1`: the GI50 is inactive: 19.2 µM.
In the case of `CCOCCOCCOCc1nc(C#N)c(N)o1` it was inactive: > 100 µM; in that of `CCCCCC(=O)Cc1cc(OC)cc2c1C(=O)Oc1cc(O)c(C(=O)O)c(CC(=O)CCCCC)c1O2`, inactive: 54.2 µM; in that of `CCOP(=O)(C=C=C(C)C)OCC`, inactive: > 100 µM.
Then `NC(=S)N1N=C2c3ccccc3CC[C@H]2[C@@H]1c1cccs1`, with inactive: 92.3 µM; and `O=C1c2cc(-c3ccccc3)cnc2S(=O)(=O)N1c1ccc(Br)cc1`, with inactive: 57.4 µM.
Turning to `C[C@@]1(CO)[C@H](O)CC[C@@]2(C)[C@H]1CC[C@H]1C[C@@H]3C[C@@]12CC[C@@]3(O)COC(=O)CN`, the GI50 is inactive: 63.4 µM.
In the case of `Nc1ccc2ccc(-c3ccc[nH]3)nc2n1`, the GI50 was inactive: > 100 µM.
Then `CO[C@@H]1C[C@H]2[C@@H]3CC[C@H]([C@@H](C)COC(C)=O)[C@@]3(C)CC[C@@H]2[C@@]2(C)CC[C@H]3C[C@]312`, with inactive: 18.9 µM; and `O=C1C2CCN(CC2)C1CN1CCOCC1` (centres undefined), with inactive: 16.6 µM; and `S=C(N/N=C(/c1ccccc1)c1ccccn1)N1CCCCC1`, with inactive: 1.19 µM.
As to `O=C(CC/C=C(/CS(=O)(=O)c1ccccc1)S(=O)(=O)c1ccccc1)c1ccccc1`, the GI50 was inactive: > 100 µM.
For `S=C1SCC2CCCN12` (centres undefined), the GI50 is inactive: > 100 µM.
`Oc1ccc(Cl)cc1/N=N\c1c(O)ccc2ccccc12`: the GI50 was inactive: > 100 µM.
Regarding `C=C1C(=O)OC2C1CC[C@H](C)C1(O)C(O)CC(=O)[C@@]21C` (some centres undefined), the GI50 was inactive: 23.9 µM.
In the case of `NC(=O)N1N=C2c3ccccc3CC[C@@H]2C1c1ccccc1` (some centres undefined) it was inactive: > 100 µM; in that of `COc1ccc(-c2cc(=O)c3ccc(O)cc3o2)c(OC)c1OC`, inactive: > 100 µM; in that of `Cn1cnnc1Sc1c([N+](=O)[O-])ncn1C`, inactive: > 100 µM.
